# Some of the results follow.
# T1: UNK ZnF1-3 (human, UniProt Q9C0B0 31-174)
# T1 sequence: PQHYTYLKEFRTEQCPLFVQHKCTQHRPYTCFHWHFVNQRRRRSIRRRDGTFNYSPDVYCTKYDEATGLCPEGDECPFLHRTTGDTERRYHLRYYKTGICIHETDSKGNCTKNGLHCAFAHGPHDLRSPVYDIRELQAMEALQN
# B1: 219457425_219458945_1033_3pUTR_ENSG00000144580_ENST00000542068|human|control|control (ssRNA)
# RNA: GGGAGUUCUACAGUCCGACGAUCGUUCUUCACCAGUUGUGCAAGCCAGCGUUUCGUGGUGGUGUCAUCUUUUAGCACCUGGGCGAAGGUUGUGUCUUUCAGCUGGUCAGGGAGGCACUGUCUGAGUGCUUCACGUGCCCUGGGCAACAGAGGAUUGAGCAUCA
# B2: 100421932_100422052_550_3pUTR_ENSMUSG00000072294_ENSMUST00000097079|mouse|control|control (ssRNA)
# RNA: GGGAGUUCUACAGUCCGACGAUCACUGACUGUACCACCACAGGGAUUCGAUGAACAUGACUGAGUUUGUUAGACUGUAAGUUCAUGGGACUGGAAGGUGGGACCGGAUGGAUGAUGUGCAAGAACUGCUGGCCGCCCACGCCACAACAGAGGAUUGAGCAUCA
# B3: chr7:35872420:35872421:+_ENSG00000122545_ENST00000399035|perfect_dup|FALSE|FALSE (ssRNA)
# RNA: GGGAGUUCUACAGUCCGACGAUCCACCGAUUUUCUGUAUACUUGAUUUGGGAGAUUGGCAAAUCCCACAUAGCCUUCAAGGUUCUUCUGUUGUACCAUGGUGCUGCUGUUGACGCUCCUCUCCUCAGCAGCAGCGGAUCUCGCCAACAGAGGAUUGAGCAUCA
# B4: chr5:22970553:22970554:+_ENSMUSG00000029004_ENSMUST00000094962|mus_mus|FALSE|FALSE (ssRNA)
# RNA: GGGAGUUCUACAGUCCGACGAUCAGCACUGGAAGUUUCAUCAAAAUUAGGAGUGGUAAAUAUGCCUACUUCGUUUUUGCUAAUGAGACCUGAUGGAGGAGGGGAUGCUGGAGGUGUUGGAGGAGGACGAGCACCAUAAUUAUGCAACAGAGGAUUGAGCAUCA
# B5: 46054269_46054389_565_CDS_ENSG00000136152_ENST00000349995|human|control|control (ssRNA)
# RNA: GGGAGUUCUACAGUCCGACGAUCGGUUCCUGUCUUAUUGGACACAAAAAGAUACUGUUUCUGCAAAGACUCCAGAUGCUGAAGAGCACUGUUUACAUCAUUCAAUAUAGCAUCACACUGCUCCUGAAACCCAGACAAGUAAUCCAACAGAGGAUUGAGCAUCA
# B6: chr16:8621372:8621373:+_ENSMUSG00000057880_ENSMUST00000065987|mus_mus|motif|central (ssRNA)
# RNA: GGGAGUUCUACAGUCCGACGAUCUGUGGUUUUCUACAGUGAACUGUAUAUAUGCGUACAGAGAUAGAUAGGUACAGAUCGGUUAGUACAUGAAUGUGCACAGUUUUUCAUGGUUACUGAGCAUCAGUAAAAAUUAUAAAAAUACAACAGAGGAUUGAGCAUCA
# B7: chr12:124105631:124105632:-_ENSG00000111361_ENST00000424014|hu_mus|FALSE|FALSE (ssRNA)
# RNA: GGGAGUUCUACAGUCCGACGAUCUACCGUAUCUAAAUUGUUCAUAUAAUUUAUUGAUUUGUUUCCACAUUUAACUUUAAAAAGCUGUUUGGGUUCUAACCAUGUUUAAAGUAAACUCCCAUUUUCUAUAGACAACAUUCUGUGCAACAGAGGAUUGAGCAUCA
# B8: 128510396_128511676_419_CDS_ENSMUSG00000014355_ENSMUST00000014499|mouse|control|control (ssRNA)
# RNA: GGGAGUUCUACAGUCCGACGAUCUUCCUUCUGUUUCUCAUGGAUUGUAACCUCCUGAAGAGAUCCCACCAAGCCAGCUGCACCAUCAGAAGACCAUAACUCAGAGGCUGGCUGCAGCUGACGAAGCUGAAGGUUCAGAGCGUUCAACAGAGGAUUGAGCAUCA
# B9: chr16:45382771:45382772:-_ENSMUSG00000022661_ENSMUST00000163230|mus_mus|mus_mus_mus_hu_True|18_108 (ssRNA)
# RNA: GGGAGUUCUACAGUCCGACGAUCCUGAGUGUUAUUGUAAGACAAAUGGACAGGGAGGGCAUGCUUCUCAAAAAAUGUGAGCUAUUGUCUAAGACUAACAAUAUUUAUCUAGCUAUAUAAAAAUAAGAAAUGAAUAAGUUAAGACAACAGAGGAUUGAGCAUCA
# B10: chr4:129324761:129324762:-_ENSMUSG00000003731_ENSMUST00000102590|mus_mus|FALSE|FALSE (ssRNA)
# RNA: GGGAGUUCUACAGUCCGACGAUCCCAAGCAUACAAGAUUAAUAUGGGUCAGAGCAAGAACACUUUGUUUGGGACUUCUCCCCUCCCCUCCCACCUCCCACCUCUGGAAUAUUCCAUCUGCUCAAGUACCCAAGAGUUACACACCAACAGAGGAUUGAGCAUCA
# B11: chr7:54825262:54825263:-_ENSG00000132432_ENST00000352861|hu_hu|hu_hu_hu_mus_False|58_98 (ssRNA)
# RNA: GGGAGUUCUACAGUCCGACGAUCCUGCCGGCUGGGCACAAACUGCAGCAUUACCUGAUCCAUGUUUGUUGGAUGGCACACCUAAAACGUAGAGACACGUAGCUCAGGAGAGAACCGAGCCCAACGGAACCGGAAGCUGGCAACCAACAGAGGAUUGAGCAUCA
# B12: chr4:38126685:38126686:+_ENSG00000065882_ENST00000510573|hu_mus|FALSE|FALSE (ssRNA)
# RNA: GGGAGUUCUACAGUCCGACGAUCGGUCUUCUCCAUCUGCACCAGGCCCAGGUUGGGGAGUGUGUUCUUUAUGAAGUCCACUAUGGUUUCCAGGUUCUCAUGCUGUAGAAUCAAGGGCUUAUGGCUCCCCAAAAGACUUAAAGCCAACAGAGGAUUGAGCAUCA
# B13: 114300158_114300769_1724_CDS_ENSMUSG00000021143_ENSMUST00000084891|mouse|control|control (ssRNA)
# RNA: GGGAGUUCUACAGUCCGACGAUCUGUCUUGUGAGACAGCUGCUCCACGAAGAGCCGCAGGAUGGCGCUGAGGUAAUGCUGCGCUCCCGCCACUGCGAUCUUCACAGGGGUCGGUGGCUGAGAAUUGCAGUUGCAGUAUCGCUGCAACAGAGGAUUGAGCAUCA
# B14: chr8:24049560:24049561:+_ENSMUSG00000031540_ENSMUST00000044331|mus_hu|motif|central (ssRNA)
# RNA: GGGAGUUCUACAGUCCGACGAUCACUGCUGACCGAACGGACUGACUGGCUGGGGUGAGACUGAACGGAGGAGAUAGGGCGGUUAUGUUCUGACGCAUGACAGUCUUCAACCAUGGACAUCUGAGGGUCCUCGUCAGCCUGGGUCAACAGAGGAUUGAGCAUCA
# B15: chr14:76904430:76904431:+_ENSMUSG00000022010_ENSMUST00000022587|mus_mus|mus_mus_mus_hu_True|8_68 (ssRNA)
# RNA: GGGAGUUCUACAGUCCGACGAUCUGCAGCCAAAAACACCCUCGUGGAAAAAAAGAGGGAACACCAGCAGCCUGGUUUAAGCUAGAUAAAAUCUUCUGGCUUUCCGCAGCCCAGGGAGAAACAGAAAUGGUGCUGGCUAAUUUACAACAGAGGAUUGAGCAUCA
# B16: chr16:94690093:94690094:+_ENSMUSG00000040785_ENSMUST00000117648|mus_hu|mus_mus_mus_hu_True|28_98 (ssRNA)
# RNA: GGGAGUUCUACAGUCCGACGAUCGGGCUGGGAUGACAGCAGACAGCCCUCGAUUCCAGGGGGAAAAAGUCUUAGUCGAUACUAAUUAAAAAGUGUUAAUGAUUUUUAUUACCAAAAUUACAUCUAUAAAAGAUGAAAAGCAAACAACAGAGGAUUGAGCAUCA
# B17: chr1:163117127:163117128:-_ENSG00000143248_ENST00000313961|hu_mus|hu_hu_hu_mus_False|68_98 (ssRNA)
# RNA: GGGAGUUCUACAGUCCGACGAUCUGCUACAAAGGAUGGAGGAAAUAUCACAGGGCAACUUUUGGAAGCCUGGCUAAAUGACUACUUGAUUAGCUCCUUAUAAAAUUCAGAGCGCACAAAGCGGGGCAGAGAAUCCUUCUCCAUCAACAGAGGAUUGAGCAUCA
# B18: chr2:9728443:9728444:-_ENSG00000134308_ENST00000238081|hu_mus|motif|central (ssRNA)
# RNA: GGGAGUUCUACAGUCCGACGAUCCUGCAUCUCCUUCUUGCUUAUAUCAAACGCCUCUUGGUAGGCUCCUUGGGAAUUUUCGGUUGUUUGUUUUCGAUCAUCGCCACAAGCUACUUCAGCAAGAUACCGGAAAUAAUCUCCCUUCAACAGAGGAUUGAGCAUCA
# B19: chr16:94664741:94664742:+_ENSMUSG00000040785_ENSMUST00000117648|mus_hu|mus_mus_mus_hu_False|8_8 (ssRNA)
# RNA: GGGAGUUCUACAGUCCGACGAUCUGGUACUGAUCUUGGUAGCUGAUAUUCAGGAGAAAGGCUGGCCAAGGGUGUAUAUAUGCUGGUGUACUGGGGCAAACCUGGUAACACGUUUAUGUAUGCUGGCCGCUGGGUGAUGAUAUCCAACAGAGGAUUGAGCAUCA
# B20: chr5:36862001:36862002:-_ENSMUSG00000029192_ENSMUST00000171385|mus_mus|FALSE|FALSE (ssRNA)
# RNA: GGGAGUUCUACAGUCCGACGAUCAAUGGCCAAGCUCCAAACUUUGCCUCUUACACUCGGAGGGAUUCCCUGCCACCACAAGUCUCGAACCUUCUUAGAGCACCACAUGGUUUCCCAGUUAGGCAAGAUCUCAUUGUUCCAGGUCAACAGAGGAUUGAGCAUCA
# B21: chr1:220276048:220276049:+_ENSG00000067704_ENST00000302637|hu_hu|hu_hu_hu_mus_True|18_98 (ssRNA)
# RNA: GGGAGUUCUACAGUCCGACGAUCGCAAAUUGCCUGGUUGGCUGGAAUUGUCCAAGGCUGGGUGGUCCAAACUAAAACGCUAACAGGGGAUGAGGCAUCUGUAAGAGACUCCAACUUUGGAGAAGGCCUCAGGAGGGGGAAUCUCAACAGAGGAUUGAGCAUCA
# B22: chr7:138035701:138035702:+_ENSMUSG00000040268_ENSMUST00000120441|mus_hu|FALSE|FALSE (ssRNA)
# RNA: GGGAGUUCUACAGUCCGACGAUCUCCUGCAUUCAUAACAAAACAGAACUCCGCCUUUGGCCUUAGCUUAGUAGCAUCGCUAACCUUUGAAAUGUAGGUAAGCUUAAUGGCUCCAACACGUGAUGAUCCAGAAGGUAGGUUCUGCAACAGAGGAUUGAGCAUCA
# Target: T1, UNK ZnF1-3
# Test: nsRBNS (natural sequence RNA bind-n-seq); RBNS binding buffer (assumed for nsRBNS): 25 mM Tris pH 7.5, 150 mM KCl, 3 mM MgCl2, 0.01% Triton X-100, 500 ug/ml BSA, 20 U/ml SUPERase-In, 4 C; UNK is unkempt and MSI1 is Musashi-1; names of the RNAs are library labels; protein concentration not given here; high values mean tight binding
row,Binder,binding signal
1,B1,0.359 enrichment R
2,B2,1.34 enrichment R
3,B3,0.645 enrichment R
4,B4,2.94 enrichment R
5,B5,1.22 enrichment R
6,B6,2.38 enrichment R
7,B7,0.937 enrichment R
8,B8,0.609 enrichment R
9,B9,3.09 enrichment R
10,B10,1.29 enrichment R
11,B11,1.46 enrichment R
12,B12,0.819 enrichment R
13,B13,0.616 enrichment R
14,B14,0.872 enrichment R
15,B15,2.06 enrichment R
16,B16,2.2 enrichment R
17,B17,1.58 enrichment R
18,B18,0.873 enrichment R
19,B19,1.01 enrichment R
20,B20,1.2 enrichment R
21,B21,1.73 enrichment R
22,B22,0.773 enrichment R

# — article PMC12136788
